Experimental data taken from patent publication US20050142634A1, “Novel modulator of non-genomic activity of nuclear receptors (mnar) and uses thereof” (Wyeth, priority 2001, published 2005).

Tested on: ER
Assay: MNAR structural-functional analysis, ER-stimulated transcription in HepG2 cells
Format: cell-based
Settings: PXXP motif MNAR mutants transfected into HepG2 cells
Method: To delineate the regions of MNAR that are responsible for interaction with estrogen receptor and c-Src tyrosine kinase, we performed functional evaluation of MNAR deletion mutants (FIG. 12). A series of C-terminal truncations of MNAR was generated using specially designed oligonucleotides, by amplifying appropriate fragments and cloning them into appropriate expression vectors. These mutants were tested for their abilities to enhance ER-stimulated transcription when transfected into HepG2 cells.
At the C-terminus, MNAR contains a region rich in both proline and glutamic acid. To delineate the regions on MNAR responsible for interaction with estrogen receptors and c-src tyrosine kinase, a functional evaluation of MNAR deletion mutants was performed (FIG. 12). A series of C-terminal truncations of MNAR was generated using specially designed oligonucleotides, by amplifying appropriate fragments and cloning them into appropriate expression vectors. These mutants were tested for their abilities to enhance ER-stimulated transcription when transfected into HepG2 cells.

B1: PXXP mutant 1: MNAR with first PXXP motif (aa 55-58) mutated (protein, listed as Homo sapiens)
chain: MAAAVLSGPSAGSAAGVPGGTGGLSAVSSGPRLRLLLLESVSGLLQPRTGSAVAAVHAPNRSAPHLPGLMCLLRLHGSVGGAQNLSALGALVSLSNARLSSIKTRFEGLCLLSLLVGESPTELFQQHCVSWLRSIQQVLQTQDPPATMELAVAVLRDLLRYAAQLPALFRDISMNHLPGLLTSLLGLRPECEQSALEGMKACMTYFPRACGSLKGKLASFFLSRVDALSPQLQQLACECYSRLPSLGAGFSQGLKHTESWEQELHSLLASLHTLLGALYEGAETAPVQNEGPGVEMLLSSEDGDAHVLLQLRQRFSGLARCLGLMLSSEFGAPVSVPVQEILDFICRTLSVSSKNISLHGDGPLRLLLLPSIHLEALDLLSALILACGSRLLRFGILIGRLLPQVLNSWSIGRDSLSPGQERPYSTVRTKVYAILELWVQVCGASAGMLQGGASGEALLTHLLSDISPP
role of mutated PXXP motif in activating ER transcriptional activity: necessary and sufficient

B2: PXXP mutant 2: MNAR with second PXXP motif (aa 64-67) mutated (protein, listed as Homo sapiens)
chain: GGAQNLSALGALVSLSNARLSSIKTRFEGLCLLSLLVGESPTELFQQHCVSWLRSIQQVLQTQDPPATMELAVAVLRDLLRYAAQLPALFRDISMNHLPGLLTSLLGLRPECEQSALEGMKACMTYFPRACGSLKGKLASFFLSRVDALSPQLQQLACECYSRLPSLGAGFSQGLKHTESWEQELHSLLASLHTLLGALYEGAETAPVQNEGPGVEMLLSSEDGDAHVLLQLRQRFSGLARCLGLMLSSEFGAPVSVPVQEILDFICRTLSVSSKNISLHGDGPLRLLLLPSIHLEALDLLSALILACGSRLLRFGILIGRLLPQVLNSWSIGRDSLSPGQERPYSTVRTKVYAILELWVQVCGASAGMLQGGASGEALLTHLLSDISPPADALKLRSPRGSPDGSLQTGKPSAPKKLKLDVGEAMAPPSHRKGDSNANSDVCAAALRGLSRTILMCGPLIKEETHRRLHDLVLPLVMGVQQGEVLGSSPYTSSR
role of mutated PXXP motif in activating ER transcriptional activity: dispensable
